± gives the standard error. This sample is rich in variants without activity.
B1: glmS ribozyme (parent)
chain: AUAAAAGCGCCAGAACUACAGAAAUGUAGUUGACGAGGAGGAGGUUUAUCGAAUUUUCGGCGGAUGCCUCCAAA

Variants of: B1
Assay: self-cleavage kobs at 2500 uM GlcN6P; higher = faster cleavage; RNA array
Details: with glucosamine-6-phosphate
In short: (§1)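 kobs was derived by fitting per-tile medians to one- or two-exponential decays after normalising signals to baseline and to non-cleaving reference variants. Those signals came from barcoded ribozyme variants transcribed in situ by E. coli RNA polymerase on sequenced MiSeq chips, followed through a hybridised Cy3 probe at 37 °C and imaged over ~14 h. Glucosamine-6-phosphate (40 μM to 10 mM) in HEPES/KCl/Mg(OAc)2 buffer was flowed in. Weighted Michaelis–Menten fits across concentrations then gave kcat and KM.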

Variant	self-cleavage kobs at 2500 uM GlcN6P [s⁻¹]
AUAAAAGCGCCAGACCUACAGAAAUGUAAUUGACGAGGAGGAGGUCUAUCGAAUUUUCGGCGGAUGGCUCCAAA [A15C G29A U46C C67G]	< 1e-05
AUAAAAGCGCCAGCACUACAGAAAUGUAGGUGACGAGGAGGAGGUUUAUCGAAUUUUGGGCGGAUGCCUCCAAA [A14C U30G C58G]	5.75e-05 ± 2.4e-05
AUAAAAGCGCCAGCACUACAGAAAUGUAGUUGACGAGGAGUAGGUUUAUCGAAUUUUCGGCGGAUGCAUCCAAA [A14C G41U C68A]	< 1e-05
AUAAAAGCGCCAGUACUACAGAAAUGUAGUUGACGAGGAGGAGUUAUAUCGAAUUUUCGGUGGAUACCUCCAAA [A14U G44U U46A C61U G66A]	< 1e-05
AUAAAAGCGCCAGACCUACAGAAAUGUAGUUGAAGAGGAGGAGGUUUAUCGAAUUUGCGGCGGUUGCCUCCAAA [A15C C34A U57G A64U]	< 1e-05
AUAAAAGCGCCAGACCUACAGAAAUGUAGUUGACGAGGUGGAGGUUUAUCGCAUUUUCGGCGGAUGCCUACAAA [A15C A39U A52C C70A]	< 1e-05
AUAAAAGCGCCAGACCUACAGAAAUGUAGUUGACGGGGAGGAGGUUUAUCGAAUUCUCGGCGGAUGCCGCUAAA [A15C A36G U56C U69G C71U]	< 1e-05
AUAAAAGCGCCAGACCUACAGAAAUGUAGUUGACGAGGAGGAGGUUCAUCGAAUCUUCGGCGGAUGCCUCCAAA [A15C U47C U55C]	0.000237 ± 7.7e-05
AUAAAAGCGCCAGCACUACAGAAAUGUAGUUGACGAGGAGGAGGUUUAUCAACUUUUCGCCGGAUGCCUCCAAA [A14C G51A A53C G60C]	< 1e-05
AUAAAAGCGCCAGUACUACAGAAAUGUAGUUGACGAGGAGGAGGUUUAUCAAAUUUUGGUCGUAAGCCUCCAAA [A14U G51A C58G G60U G63U U65A]	< 1e-05
AUAAAAGCGCCAGAGAUACAGAAAUGUAGUUGACGAGGAGGAGCUUUAUCGAAUUUUCGGCGGAUGCCUCCAAA [A15G C16A G44C]	< 1e-05
AUAAAAGCGCCAGACCUACAGAAAUGUAGUUGCCGAGGAGGAGGUUUAUCGAAUUUUCGGCGGAUGCCUCCAAA [A15C A33C]	3.95e-05 ± 1.2e-05
AUAAAAGCGCCAGACCUACAGAAAUGUAGUUGGCGAGGAGGAGGUUUAUCGAAUUUUCGGCGGAUGCCUCCAAA [A15C A33G]	< 1e-05
AUAAAAGCGCCAGGACUACAGAAAUGUAGUUUUCGAGGAGGAGGUUUAUCGAAUUUUCGGCGGAUGCGUCCAAA [A14G G32U A33U C68G]	< 1e-05
AUAAAAGCGCCAGUACUACAGAAAUGUAGAUGACGAGGAGGAGGUUUAUCGAAUUUUCGGCGGAUGCCUCGAAA [A14U U30A C71G]	5.1e-05 ± 1.2e-05
AUAAAAGCGCCAGACCUACAGAAAUGUAGUUGACGAGGAGGAGGUUUAUCAAAUCUUUGGCGGAUGCCUCCAAA [A15C G51A U55C C58U]	< 1e-05

Variant	self-cleavage kobs at 2500 uM GlcN6P [s⁻¹]
AUAAAAGCGCCAGCACUACAGAAAUGUAGUUGACGAGGAGGAGGUCUAUCGAAUUUUCGGCGGAUGCCUUCAAA [A14C U46C C70U]	0.000279 ± 5.2e-05
AUAAAAGCGCCAGGAUUACAGAAAUGUAGGUGACCAGGAGGAGGGUUAUCGAAUUUUCGGCGGAUGCCUCCAAA [A14G C16U U30G G35C U45G]	< 1e-05
AUAAAAGCGCCAGCACUACAGAAAUGUAGUUGACGAGGAGUUGGUUUAUCGAAUUUUCGGCGGUUGCCUGCAAA [A14C G41U A42U A64U C70G]	< 1e-05
AUAAAAGCGCCAGACCUACAGAAAUGUAGUUGACGAGGAGGAGGUUUAUCGAAUUUUCGGCGGCUGCUUCCAAA [A15C A64C C68U]	< 1e-05
AUAAAAGCGCCAGGACUACAGAAAUGUAGUCGACGAGGAGGACGUUUAUCGAAUUUUCGGCGGAUGCCUCCAAA [A14G U31C G43C]	< 1e-05
AUAAAAGCGCCAGUACUACAGAAAUGUAAUUGACGAGGAGGAGGUUUAUCGAAUUUUCGGCGGUUGCCUCCAAA [A14U G29A A64U]	< 1e-05
AUAAAAGCGCCAGGACUACAGAAAUGUAGUUGGCGAGGAGGAGGUCUAUCGCAUUUUCGGCGGAUGCCUCCAAA [A14G A33G U46C A52C]	< 1e-05
AUAAAAGCGCCAGGACUACAGAAAUGUAGUUGAUAAGGAGGACGUUUAUCGAAUUUUCGGCGGAUGCCUCCAAA [A14G C34U G35A G43C]	< 1e-05
AUAAAAGCGCCAGUACUACAGAAAUGUAGUUGACGAGGAGGAGGUUUAUCGAAUUUUCGGCGGAUGACUCUAAA [A14U C67A C71U]	0.000265 ± 5.2e-05
AUAAAAGCGCCAGUACUACAGAAAUGUAGUUGACUUGGAGGAGGUUUAUCGAAUUUUCGGCGGAUGCCUCCAAA [A14U G35U A36U]	< 1e-05
AUAAAAGCGCCAGAGCUACAGAAAUGUAGUUGAGAAGGAGGAAGUUUAUCGAAUUUUCGGCGGGUGCCUCCAAA [A15G C34G G35A G43A A64G]	< 1e-05
AUAAAAGCGCCAGAGGUACAGAAAUGUAGUUGACGAGGAGGAGGUUUAUCGAAUUUUCGGCGGAUGCCUCGAAA [A15G C16G C71G]	0.000115 ± 4e-05
AUAAAAGCGCCAGUACUACAGAAAUGUAUUUGACGAGGAGGAGGUUUGUCGAAUUUUCGGCGGAUGCCUCCAAA [A14U G29U A48G]	< 1e-05
AUAAAAGCGCCAGCACUACAGAAAUGUAGUUGACGAGGAGGAGGUUGUUCAAAUUUUCGGCGGAUGCCUCCAAA [A14C U47G A48U G51A]	< 1e-05
AUAAAAGCGCCAGGACUACAGAAAUGUAGGUGACGAGGAGGCGGUUUAUCGAAUUUUCGGCGGAUGCGUCCAAA [A14G U30G A42C C68G]	< 1e-05

Variants of: B1
Assay: self-cleavage kobs at 10000 uM GlcN6P; higher = faster cleavage; RNA array
Details: with glucosamine-6-phosphate
In short: as §1

Variant	self-cleavage kobs at 10000 uM GlcN6P [s⁻¹]
AUAAAAGCGCCAGACCUACAGAAAUGUAAUUGACGAGGAGGAGGUCUAUCGAAUUUUCGGCGGAUGGCUCCAAA [A15C G29A U46C C67G]	< 1e-05
AUAAAAGCGCCAGACCUACAGAAAUGUAGUUGCCGAGGAGGAGGUUUAUCGAAUUUUCGGCGGAUGCCUCCAAA [A15C A33C]	5.37e-05 ± 6.3e-06
AUAAAAGCGCCAGACCUACAGAAAUGUAGUUGGCGAGGAGGAGGUUUAUCGAAUUUUCGGCGGAUGCCUCCAAA [A15C A33G]	< 1e-05
AUAAAAGCGCCAGACCUACAGAAAUGUAGUUGACGAGGAGGAGGUUUAUCAAAUCUUUGGCGGAUGCCUCCAAA [A15C G51A U55C C58U]	< 1e-05
AUAAAAGCGCCAGCACUACAGAAAUGUAGUUGACGAGGAGGAGGUCUAUCGAAUUUUCGGCGGAUGCCUUCAAA [A14C U46C C70U]	0.000482 ± 9.4e-05
AUAAAAGCGCCAGUACUACAGAAAUGUAAUUGACGAGGAGGAGGUUUAUCGAAUUUUCGGCGGUUGCCUCCAAA [A14U G29A A64U]	< 1e-05
AUAAAAGCGCCAGAGGUACAGAAAUGUAGUUGACGAGGAGGAGGUUUAUCGAAUUUUCGGCGGAUGCCUCGAAA [A15G C16G C71G]	9.34e-05 ± 2.6e-05

Reference: the supplement of paper PMC7125110
